Reference: the supplement of paper PMC3334620
Whole data set: some 33,000 sequences, median “E-score (-0.5 to 0.5)” near -0.021, cut for the highest 2% near 0.32. The list shows a part of the results.

Molecular target: T1, Zap1 (UniProt P47043)
T1 sequence: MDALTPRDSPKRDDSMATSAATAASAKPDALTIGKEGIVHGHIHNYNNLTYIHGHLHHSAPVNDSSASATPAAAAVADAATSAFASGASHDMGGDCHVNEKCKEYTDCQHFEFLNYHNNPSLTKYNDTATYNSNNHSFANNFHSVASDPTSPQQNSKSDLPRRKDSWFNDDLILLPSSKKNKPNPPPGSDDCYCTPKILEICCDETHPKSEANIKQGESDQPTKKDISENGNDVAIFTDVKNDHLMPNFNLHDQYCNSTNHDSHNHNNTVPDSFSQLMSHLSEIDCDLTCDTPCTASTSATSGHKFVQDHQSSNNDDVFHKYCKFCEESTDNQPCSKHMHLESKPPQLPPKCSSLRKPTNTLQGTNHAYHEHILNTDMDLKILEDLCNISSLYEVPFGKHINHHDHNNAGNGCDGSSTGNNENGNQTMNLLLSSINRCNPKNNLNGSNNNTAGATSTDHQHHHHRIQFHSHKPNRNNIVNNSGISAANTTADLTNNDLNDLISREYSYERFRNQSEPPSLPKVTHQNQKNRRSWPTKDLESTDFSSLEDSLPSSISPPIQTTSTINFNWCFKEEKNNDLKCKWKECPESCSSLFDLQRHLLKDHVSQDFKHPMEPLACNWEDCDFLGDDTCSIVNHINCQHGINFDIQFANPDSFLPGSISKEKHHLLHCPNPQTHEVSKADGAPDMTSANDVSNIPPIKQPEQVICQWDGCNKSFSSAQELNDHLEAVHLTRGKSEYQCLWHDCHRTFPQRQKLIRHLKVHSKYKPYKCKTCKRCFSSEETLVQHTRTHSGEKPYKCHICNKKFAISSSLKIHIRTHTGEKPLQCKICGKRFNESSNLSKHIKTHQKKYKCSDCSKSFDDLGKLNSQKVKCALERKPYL
Test: PBM E-score (8-mer binding enrichment) (E-score (-0.5 to 0.5)); higher = stronger / more preferred TF binding; most listed sequences are background and not binding sites
Conditions: protein concentration: 200 nM; construct: GST-full length
Method in brief: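 Bound GST-tagged yeast transcription factors, applied at about 100-200 nM to double-stranded universal all-10-mer Agilent arrays, were detected with fluorescent anti-GST. Scans were normalised with masliner. A modified Wilcoxon-Mann-Whitney statistic, the E-score, was assigned to each ungapped eight-base word pooled with its reverse complement by the Universal PBM Analysis Suite.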

**Q.** How did the “PBM E-score” value turn out when CGAGACAC was run?
**A.** -0.0303

**Q.** How did the “PBM E-score” value turn out when GTTGTTTA was run?
**A.** 0.164

**Q.** With AGGCCAAC as the sequence, how does the “PBM E-score” value read?
**A.** -0.0893

**Q.** How did the “PBM E-score” value turn out when ACTCTAGA was run?
**A.** 0.0328

**Q.** Which “PBM E-score” value does the source give for ATCTTGGA here?
**A.** 0.00915

**Q.** How did the “PBM E-score” value turn out when ACGAAGTC was run?
**A.** -0.206

**Q.** How did the “PBM E-score” value turn out when ACACTCAT was run?
**A.** -0.0643

**Q.** How did the “PBM E-score” value turn out when GCGGCCGC was run?
**A.** 0.0803

**Q.** For CCCTAATC, which “PBM E-score” value is on record?
**A.** 0.0726

**Q.** With ACGAAAGG as the sequence, how does the “PBM E-score” value read?
**A.** 0.0805

**Q.** With CATGCCCA as the sequence, how does the “PBM E-score” value read?
**A.** -0.296

**Q.** Which “PBM E-score” value does the source give for ATAAACGA here?
**A.** 0.201

**Q.** CAACGACG was tested. Which “PBM E-score” value did it give?
**A.** -0.19

**Q.** AGCGTGTG was tested. Which “PBM E-score” value did it give?
**A.** -0.0655

**Q.** For ACCAGTCG, which “PBM E-score” value is on record?
**A.** 0.0704

**Q.** How did the “PBM E-score” value turn out when AATTTACG was run?
**A.** 0.113

**Q.** How did the “PBM E-score” value turn out when AAGTCGGC was run?
**A.** -0.23

**Q.** CAGAGAAA was tested. Which “PBM E-score” value did it give?
**A.** 0.0455

**Q.** ATCGTGTC was tested. Which “PBM E-score” value did it give?
**A.** -0.118

**Q.** Which “PBM E-score” value does the source give for GCTCACAC here?
**A.** 0.016

**Q.** GGTACGAA was tested. Which “PBM E-score” value did it give?
**A.** 0.201

**Q.** AGGCGAAT was tested. Which “PBM E-score” value did it give?
**A.** -0.322

**Q.** For GAGATGCA, which “PBM E-score” value is on record?
**A.** -0.213

**Q.** Which “PBM E-score” value does the source give for ATGCTGGG here?
**A.** -0.126

**Q.** ATACATGG was tested. Which “PBM E-score” value did it give?
**A.** -0.131

**Q.** How did the “PBM E-score” value turn out when CAATCCCA was run?
**A.** -0.182

**Q.** Which “PBM E-score” value does the source give for CGCTTGAA here?
**A.** 0.143

**Q.** ATCAGAGG was tested. Which “PBM E-score” value did it give?
**A.** -0.0826

**Q.** ACGTGAGG was tested. Which “PBM E-score” value did it give?
**A.** -0.018

**Q.** For ATTAATGA, which “PBM E-score” value is on record?
**A.** 0.138

**Q.** For AAACAATC, which “PBM E-score” value is on record?
**A.** 0.145

**Q.** How did the “PBM E-score” value turn out when AGGGGCGC was run?
**A.** -0.101

**Q.** Which “PBM E-score” value does the source give for AAGGAGCC here?
**A.** -0.294

**Q.** With AAACTTTC as the sequence, how does the “PBM E-score” value read?
**A.** 0.0388

**Q.** How did the “PBM E-score” value turn out when ATCTTTAA was run?
**A.** 0.206

**Q.** ACTTATAT was tested. Which “PBM E-score” value did it give?
**A.** 0.26

**Q.** With ACAGGCGT as the sequence, how does the “PBM E-score” value read?
**A.** -0.324

**Q.** Which “PBM E-score” value does the source give for AGGAGGAG here?
**A.** -0.279

**Q.** For CTTTGATA, which “PBM E-score” value is on record?
**A.** 0.106

**Q.** Which “PBM E-score” value does the source give for CGGTGTTC here?
**A.** 0.0412

**Q.** How did the “PBM E-score” value turn out when CAAGATTA was run?
**A.** -0.00834

**Q.** For CTTGTCTC, which “PBM E-score” value is on record?
**A.** -0.00369

**Q.** For CCATGCTC, which “PBM E-score” value is on record?
**A.** -0.174

**Q.** How did the “PBM E-score” value turn out when CTCTGTGC was run?
**A.** -0.164

**Q.** CAAAAGAA was tested. Which “PBM E-score” value did it give?
**A.** 0.111

**Q.** For AAAGCCCC, which “PBM E-score” value is on record?
**A.** -0.2

**Q.** How did the “PBM E-score” value turn out when CAAAGCAG was run?
**A.** 0.00173

**Q.** Which “PBM E-score” value does the source give for CTGGTTTA here?
**A.** -0.0412

**Q.** With CACCTAAC as the sequence, how does the “PBM E-score” value read?
**A.** -0.0198

**Q.** With TCTCGACA as the sequence, how does the “PBM E-score” value read?
**A.** -0.117

**Q.** For AGTACACA, which “PBM E-score” value is on record?
**A.** 0.0705

**Q.** Which “PBM E-score” value does the source give for GCTTTCGA here?
**A.** -0.0324

**Q.** With CAACTGTA as the sequence, how does the “PBM E-score” value read?
**A.** 0.0697

**Q.** Which “PBM E-score” value does the source give for CCACTTCG here?
**A.** -0.0993

**Q.** For ATTGTTTC, which “PBM E-score” value is on record?
**A.** 0.195

**Q.** With CCCGAGGA as the sequence, how does the “PBM E-score” value read?
**A.** -0.141

**Q.** For ATGTCAGG, which “PBM E-score” value is on record?
**A.** -0.0549

**Q.** For TCCCGTAA, which “PBM E-score” value is on record?
**A.** 0.184

**Q.** For CGACGCAG, which “PBM E-score” value is on record?
**A.** -0.187

**Q.** Which “PBM E-score” value does the source give for AGAGAAAG here?
**A.** -0.0958

**Q.** Which “PBM E-score” value does the source give for GCTGAAGA here?
**A.** -0.0693

**Q.** For AACAGCTG, which “PBM E-score” value is on record?
**A.** 0.13

**Q.** Which “PBM E-score” value does the source give for AACTGCAC here?
**A.** 0.131

**Q.** For CAATCCGG, which “PBM E-score” value is on record?
**A.** -0.0977

**Q.** For ATTGCTCA, which “PBM E-score” value is on record?
**A.** -0.0105

**Q.** Which “PBM E-score” value does the source give for CAGCTACC here?
**A.** -0.0054

**Q.** How did the “PBM E-score” value turn out when ATTTGCTC was run?
**A.** -0.169

**Q.** For AGATTGTG, which “PBM E-score” value is on record?
**A.** 0.0673

**Q.** Which “PBM E-score” value does the source give for AAGACAAA here?
**A.** 0.012

**Q.** How did the “PBM E-score” value turn out when CAGCGGAC was run?
**A.** 0.0227

**Q.** For ATTACAAC, which “PBM E-score” value is on record?
**A.** 0.0539

**Q.** With ATACCTCA as the sequence, how does the “PBM E-score” value read?
**A.** 0.223

**Q.** For TAAAGGTA, which “PBM E-score” value is on record?
**A.** 0.34

**Q.** Which “PBM E-score” value does the source give for CTTTGATC here?
**A.** 0.00855

**Q.** CACTAAAG was tested. Which “PBM E-score” value did it give?
**A.** 0.159

**Q.** CTGGATTC was tested. Which “PBM E-score” value did it give?
**A.** -0.00494

**Q.** ACTTCCTC was tested. Which “PBM E-score” value did it give?
**A.** -0.0802

**Q.** How did the “PBM E-score” value turn out when CAGCCCTG was run?
**A.** -0.244

**Q.** With CAAACTAC as the sequence, how does the “PBM E-score” value read?
**A.** 0.0989

**Q.** With AGCTGCCA as the sequence, how does the “PBM E-score” value read?
**A.** -0.301

**Q.** With GCTCCCAC as the sequence, how does the “PBM E-score” value read?
**A.** -0.0727

**Q.** With CGTTCCGC as the sequence, how does the “PBM E-score” value read?
**A.** 0.0318

**Q.** For CGCAACAG, which “PBM E-score” value is on record?
**A.** -0.0258

**Q.** How did the “PBM E-score” value turn out when CCCACTTA was run?
**A.** -0.0455

**Q.** CCAGATCG was tested. Which “PBM E-score” value did it give?
**A.** -0.119

**Q.** For ACATAGAA, which “PBM E-score” value is on record?
**A.** -0.0681
